From the supplement of paper PMC12217912
The other results are listed elsewhere or left out. Sequences were assembled here from the parent chain. Values near 0.05 are background.

B1: TEV protease; numbered along this chain (parent)
chain: MGESLFKGPRDYNPISSSICHLTNESDGHTTSLYGIGFGPFIITNKHLFRRNNGTLVVQSLHGVFKVKDTTTLQQHLVDGRDMIIIRMPKDFPPFPQKLKFREPQREERICLVTTNFQTKSMSSMVSDTSCTFPSGDGIFWKHWIQTKDGQCGSPLVSTRDGFIVGIHSASNFTNTNNYFTSVPKNFMELLTNQEAQQWVSGWRLNADSVLWGGHKVFMVKPEEPFQPVKEATQL

Variants of: B1
Assay: raw area under fraction-flipped curve 0-4 h after induction (AUC4h, not background-subtracted), DNA-recorder readout of cleavage of the substrate (dimensionless); higher = more cleavage of the substrate by the protease variant
Details: temperature: 34 °C; time window: 0-4 h after rhamnose induction
Protocol: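 In vivo DNA recorder in E. coli TOP10(DE3) ΔrhaA at 34 °C. Each TEVp single-site mutant (parent TEVp 0) is paired with a single-site variant of the 7-mer TEVs (canonical ENLYFQ|S). The substrate sits between flexible linkers in a Bxb1-sfGFP-TEVs-SsrA fusion, so cleavage stabilises Bxb1 and speeds flipping of a recombination array, read by NGS. The value is the raw area under the fraction-flipped curve over 0-4 h after rhamnose induction (AUC4h), with ≥20 reads per time point. It is not background-subtracted; inactive controls average about 0.047.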
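Further: Bxb1 expression induced with 0.2% (w/v) L-rhamnose at OD600 near 0.5, cultures sampled hourly, flipped fraction per protease–substrate barcode pair counted by paired-end Illumina sequencing.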

Variant | area with substrate ENLYAQS | area with substrate ENLYCQS | area with substrate ENLYDQS | area with substrate ENLYEQS | area with substrate ENLYGQS | area with substrate ENLYHQS | area with substrate ENLYIQS | area with substrate ENLYKQS | area with substrate ENLYLQS | area with substrate ENLYMQS | area with substrate ENLYNQS | area with substrate ENLYPQS | area with substrate ENLYRQS | area with substrate ENLYSQS | area with substrate ENLYTQS | area with substrate ENLYVQS | area with substrate ENLYWQS | area with substrate ENLYYQS | area with substrate ENLYQQS
MGESLFKGPRDYNPISSSICHLTNESDGHTTSLYGIGFGPFIITNKHLFRRNNGTLVVQSLHGVFKVKDTTTLQQHLVDGRDMIIIRMPKDFPPFPQKLKFREPQREERICLVTTNFQTKSMSSMVSDTSCTFPSGDGIFWKHWIQTKDGWCGSPLVSTRDGFIVGIHSASNFTNTNNYFTSVPKNFMELLTNQEAQQWVSGWRLNADSVLWGGHKVFMVKPEEPFQPVKEATQL [Q151W] | 0.0608 | 0.0769 | 0.0659 | 0.0589 | 0.0582 | 0.0609 | 0.072 | 0.0642 | 0.0705 | 0.0708 | 0.0591 | 0.0705 | 0.069 | 0.0728 | 0.0728 | 0.0767 | 0.074 | 0.06 | –
MGESLFKGPRDYNPISSSICHLTNESDGHTTSLYGIGFGPFIITNKHLFRRNNGTLVVQSLHGVFKVKDTTTLQQHLVDGRDMIIIRMPKDFPPFPQKLKFREPQREERICLVTTNFQTKSMSSMVSDTSCTFPSGDGIFWKLWIQTKDGQCGSPLVSTRDGFIVGIHSASNFTNTNNYFTSVPKNFMELLTNQEAQQWVSGWRLNADSVLWGGHKVFMVKPEEPFQPVKEATQL [H143L] | 0.0554 | – | 0.0579 | – | 0.0507 | 0.0624 | – | 0.049 | – | 0.0587 | 0.0579 | 0.0636 | 0.0136 | – | – | 0.0754 | 0.0629 | 0.0559 | 0.0574
MGESLFKGVRDYNPISSSICHLTNESDGHTTSLYGIGFGPFIITNKHLFRRNNGTLVVQSLHGVFKVKDTTTLQQHLVDGRDMIIIRMPKDFPPFPQKLKFREPQREERICLVTTNFQTKSMSSMVSDTSCTFPSGDGIFWKHWIQTKDGQCGSPLVSTRDGFIVGIHSASNFTNTNNYFTSVPKNFMELLTNQEAQQWVSGWRLNADSVLWGGHKVFMVKPEEPFQPVKEATQL [P9V] | 0.0817 | – | 0.0598 | 0.074 | 0.0275 | 0.0742 | 0.12 | – | – | 0.104 | 0.0559 | 0.099 | 0.0606 | – | – | 0.109 | 0.0712 | – | –
MGESLFKGPRDYNPISSSICHLTNESDGHTTSLYGIGFGPFIITNKHLFRRNNGTLVVQSLHGVFKVKDTTTLQQHLVDGRDMIIIRMPKDFPPFPQKLKFQEPQREERICLVTTNFQTKSMSSMVSDTSCTFPSGDGIFWKHWIQTKDGQCGSPLVSTRDGFIVGIHSASNFTNTNNYFTSVPKNFMELLTNQEAQQWVSGWRLNADSVLWGGHKVFMVKPEEPFQPVKEATQL [R102Q] | 0.0432 | 0.0637 | 0.0528 | 0.0436 | 0.0658 | – | 0.0566 | 0.0545 | – | 0.0557 | 0.0537 | – | – | 0.059 | – | 0.0354 | 0.0492 | 0.0644 | 0.0396
MGESLFKGPRDYNPISSSECHLTNESDGHTTSLYGIGFGPFIITNKHLFRRNNGTLVVQSLHGVFKVKDTTTLQQHLVDGRDMIIIRMPKDFPPFPQKLKFREPQREERICLVTTNFQTKSMSSMVSDTSCTFPSGDGIFWKHWIQTKDGQCGSPLVSTRDGFIVGIHSASNFTNTNNYFTSVPKNFMELLTNQEAQQWVSGWRLNADSVLWGGHKVFMVKPEEPFQPVKEATQL [I19E] | 0.0361 | – | 0.0421 | 0.0439 | 0.0515 | 0.0404 | – | 0.051 | 0.0531 | 0.0521 | 0.0489 | 0.0587 | – | – | – | – | 0.0472 | – | 0.047
MGESLFKGPRDYNPISSSICHLTNESDGHTTSLYGIGFGPFIITNKHLFRRNNGTLVVQSLHGVFKVKDTTTLQQHLVDGRDMIIIRMPKDFPPFPQKLKFREPQREERICLVTTNFQTKSMSSMVSDTSCTFPSGDGIFWKHWIQTKDGQCGSPLVSTRDGFIVGIHSASNFTNTNNYFTSVPKNFMELLTNQEAQQWVSGERLNADSVLWGGHKVFMVKPEEPFQPVKEATQL [W203E] | 0.066 | – | 0.0584 | 0.0493 | 0.0529 | 0.0663 | 0.0641 | – | – | – | 0.0699 | 0.0632 | 0.0666 | 0.0689 | – | 0.0759 | 0.0571 | – | 0.0743
MGESLFKGPRDYNPISSSICHLTNESDGHTTSLYGIGFGPFIITNKHLFRRNNGTLVVQSLHGVFKVKDTTTLQQHLVDGRDMIIIRMPKDFPPFPQKLKFREPQREERICLVQTNFQTKSMSSMVSDTSCTFPSGDGIFWKHWIQTKDGQCGSPLVSTRDGFIVGIHSASNFTNTNNYFTSVPKNFMELLTNQEAQQWVSGWRLNADSVLWGGHKVFMVKPEEPFQPVKEATQL [T114Q] | 0.0749 | 0.123 | 0.0645 | 0.0661 | 0.0639 | – | 0.0706 | 0.0493 | 0.0399 | – | 0.0831 | 0.0709 | – | 0.0565 | – | 0.0512 | 0.081 | – | –
MGESLFKGPRDYNPISSSICHLTNESDGHTTSLYGIGFGPFIITNKHLFRRNNGTLVVQSLHGVFKVKDTTTLQQHLVDGRDMIIIRMPKDFPPFPQKLKFREPQREERICLVTTNFQTKSMSSMVSDTSCTFPSGDGIFWKHWIQTKDGQCGSPLVSTRDGFIVGIHSASNFTNTNNYPTSVPKNFMELLTNQEAQQWVSGWRLNADSVLWGGHKVFMVKPEEPFQPVKEATQL [F180P] | 0.0846 | 0.0559 | – | 0.059 | 0.0519 | 0.0368 | 0.0464 | 0.0278 | – | 0.0475 | 0.0586 | 0.0428 | 0.0637 | – | – | – | 0.061 | 0.0466 | –
MGESLFKGPRDYNRISSSICHLTNESDGHTTSLYGIGFGPFIITNKHLFRRNNGTLVVQSLHGVFKVKDTTTLQQHLVDGRDMIIIRMPKDFPPFPQKLKFREPQREERICLVTTNFQTKSMSSMVSDTSCTFPSGDGIFWKHWIQTKDGQCGSPLVSTRDGFIVGIHSASNFTNTNNYFTSVPKNFMELLTNQEAQQWVSGWRLNADSVLWGGHKVFMVKPEEPFQPVKEATQL [P14R] | 0.0682 | – | 0.0683 | 0.0623 | 0.0694 | 0.0564 | 0.129 | 0.055 | – | 0.106 | 0.0698 | 0.0855 | 0.0376 | 0.0597 | – | 0.136 | 0.0607 | 0.057 | 0.0612
